B1: LINE1-full (parent)
chain: UACGUAGGUGGUUUUCCCCUGAUAGUGCUAAGGGGGCCUGGAAGUUUGGACUGGGCAGAGCUCAACACAGCGUGGCAAAGUGGCUGUGGCUAGACUGCCUCUCUGGAUUCCUCGUCACUCAGCAGGGCAUCUCUGAGAGAAAUGCC

Read counts are not given, so values of variants with three or more changes are uncertain.

In the series the parent is B1. Briefly: self-cleavage, relative activity (ratio to wild type); higher = more cleavage; in vitro, sequencing; the parent is a self-cleaving ribozyme.
Turning to UACGUAGGUGGUUUUCCCUUGAUAGAGCUAAGGGGGCCUGGAAGUCUGGACUGGGCAGAGCUCAACACAGCGCGGCAAAGUGGCUGUGGCUAGACUGCCUCUCUGGAUUCCUCGUCACUCAGCAGGGCAUCUCUGAGAGAAAUGCC [C19U U26A U46C U73C], the self-cleavage was found to be 1.36.
For the variant UACGUAGGUGGUUUUCCCUUGAUAGUGCUAAGGGGGCCUGGAAGUCUGGACUGGGCAGAGCACAACACAGCGUGGCAAAGUGGCUGUGGCUAGACUGCCUCUCUGGAUUCCUCGUCACGCAGCAGGGCACCUCUGAGAGAAAUGCC [C19U U46C U62A U119G U130C], the self-cleavage amounted to 0.
To UACGUAGGUGGUUUUCCCUUGACAGUGCUAAGGGGGCCUGGAAGUUUGAACUGGGCAGAGCUCAGCACAGCGUGGCAAAGUGGCUGUGGCUAGACUGCCUCUCUGGAUUCCUCGUCACCCAGCAGGGCAUCUCUGAGAGAAAUGCC [C19U U23C G49A A65G U119C] belongs 0.14.
The result for UACGUAGGUGGUUUUCCCUUGAUAGUGCUAAGGGGGCCUGGAAGUUUGCACUGGGCAGAGCUCAACACAGCGUGGCAAAGUGGCUGUGGCUAGACUGCCUCUCUGGGUUCCUCGUCACUCAGCAGGGCAUCUCUGAGAGAAAUGCC [C19U G49C A107G] reads 1.26; that for UACGUAGGUGGUUUUCCCUUGAUAGUGCUAAGGGGGCCUGGAAGUUUGGACAGGGCAGAGCUCAACACAGCGUGGCAAAGUGGCUGUGGCUAGACUGCCUCUCUGGAUUCCUCGUCACUCAGCGGGGCAUCUCUGAGAGAAAUGCC [C19U U52A A124G], 0.83; that for UACGUAGGUGGUUUUCCCUUGAUAGUGCUAAGGGGGCCUGGAAGUUUGGACUGGGCAGAGCUCAACACAGCGUGGCAAAGCGGCUGUGGCUAGACUGCCUCUCUGGAUUCCUCGUCACUCAGCAGGGCAUCUCUGAGGGAAAUGCC [C19U U81C A138G], 1.8.
The result for UACGUAGGUGGUUUUCCCUUGAUAGUGCUAAGGGGGCCUGGAAGUUUGGACUGGGCAGAGCUCAACACAGCGUGGCAAAAUGGCUGUGGCUGGACUGCCUCUCUGGAUUCCUCGUCACUCAGCAGGGCAUCUCUGAGAGAAAUGCC [C19U G80A A92G] reads 0.06; that for UACGUAGGUGGUUUUCCCUUGAUAGUGCUAAGGGGGCCUGGAAGUUUGGACUGGGCAGAGCUCAACACAGCGUGGCAAAGUGGCUGUGGCUAGACUGCCUCUCUGGAUUCCUCGUCACUCAGCAGGGCAUCUCUGGGAGGAAUGCC [C19U A136G A140G], 1.08.
On to UACGUAGGUGGUUUUCCCUUGAUAGUGCUAAGGGGGCCUGGAAGUUUGGACUGGGCAGAGCUCAACACAGCGUAGCAAAGUGGCUGUGGCUAGACUGCCUCUCUGGAUUCCUCGUCACUCAGCAGGGCUUCUCUGAGAGAAAUGCC [C19U G74A A129U], for which the self-cleavage came to 0.93.
To UACGUAGGUGGUUUUCCCUUGAUAGUGCUAAGGGGGCAUGGAAGUUUGGACUGGGCAGAGCUCAACACAGCGUGGCUAAGUGGCUGCGGCUAGACUGCCUCUCUGGAUUCCUCGUCACUCAGCAGGGCAUCUCCGAGAGAAAUGCC [C19U C38A A77U U87C U134C] belongs 0.12.
Turning to UACGUAGGUGGUUUUCCCUUGAUAGUGCUAACGGGGCCCGGAAGUUUGGACUGGGCAGAGCUCAACACAGCGUGGCAAAGUGGCUGUGGCUAGACCGCCUCUCUGGAUUCCUCGUCACUCAGCAGGGCAUCUCUGAGAGAGAUGCC [C19U G32C U39C U96C A141G], the self-cleavage worked out at 0.
The result for UACGUAGGUGGUUUUCCCUUGAUAGCGCUAAGGGGGCCUGGGAGUUUGGACCGGGCAGAGCUCAACACAGCGUGGCAAAGUGGCUGUGGCUAGACUGCCUCUCUGGAUUCCUCGUCACUCAGCAGGGCAUCUCUGAGAGAAAUGCC [C19U U26C A42G U52C] reads 1.38; that for UACGUAGGUGGUUUUCCCUUGAUAGUGCUAAGGGGGCCUGGAAGUUUGGACUGGGCAGAGCUCAACACAGCGUGGCAAAGUGGCUGUGGCUAGACUGCCUCUCUGGAUUCCUCGUCACUCAGCAGGGCACAUCUGAGAGAAAUGCC [C19U U130C C131A], 1.06.
The result for UACGUAGGUGGUUUUCCCCAGGUAGUGCUAAGGGGGCCUGGAAGUUUGGUCUGGGCAGAGCUCAACACAGCGUGGCAAAGUGGCUGUGGCUAGACUGCCUCUCUGGAUUCCUCGUCACUCAGCAGGGCAUCUCUGAGAGAAAUGCC [U20A A22G A50U] reads 0.69; that for UACGUAGGUGGUUUUCCCUUGAUAGUGCUAAGGGUGCCUGGAAGUUUGGACUGGGCAGAGCUCAACACAGCGUGGCAAAGUGGCUGAGGCUAGACUGCCUCUCUGGACUCCUCGUCACACAGCAGGGCAUUUCUGAGAGAAAAGCC [C19U G35U U87A U108C U119A C131U U143A], 0.09.
The result for UACGUAGGUGGUUUUCCCUUGAUAGUGCUAAGGCGGCCUGGAAGUUUGGACUGGGCAGAGCUCAACACAGCGUGGCAAAGUGGCUGUGGCUAGACUGCCUCUCUGGAUUCCUCGUCACUCAGCAGGGCAUCUCUGAGGGAAAUGCC [C19U G34C A138G] reads 1.35; that for UACGUAGGUGGUUUUCCCUUGAUAGUGCUAAGGGGGCCUGGAAGUUUGGACUGGGCAGAGCUCAACACAGCGUGGCAAUGUGGCUGUGGCUAGACUGCCUCUCUGGAUUCCUCGUCACUCAGCAGGGCAUCUCGGAGAGAAAUGCC [C19U A79U U134G], 1.23; that for UACGUAGGUGGUUUUCCCUUGAUAGUGCUAAGGGGGCCUGGAAGUUUGGACUGGGCAGAGCUCAACACAGCGUGGCAAAGUGGCCGUGGCCAGACUGCCUCUCUGGAUUCCUCGUCACUCAGCAGGGCGUCUCUGAGAGAAAUGCC [C19U U85C U91C A129G], 0.
As for UACGUAGGUGGUUUUCCCUUGAUAGUGCUAAGGGGGCCUGGAAGUUCGGACUGGGCAGAGCUCAACACAGCGUGGCAAAGUGGCUGUGGUUAGACUGCCUCUCUGGAUUCCUCGUCACUCAGCAGGGCAUCUCUGAGAGAAAUGCC [C19U U47C C90U], the self-cleavage stood at 0.04.

The record behind these values is the RNAGym collection of RNA variant scans (doi:10.7554/elife.90254).
